Data taken from publication PMC9911399, “Two distinct binding modes provide the RNA-binding protein RbFox with extraordinary sequence specificity”.
Residue numbers refer to the chain shown, from its start. This is one part of the list.

T1: RBFOX1 RRM (Homo sapiens, UniProt Q9NWB1 109-208)
T1 sequence: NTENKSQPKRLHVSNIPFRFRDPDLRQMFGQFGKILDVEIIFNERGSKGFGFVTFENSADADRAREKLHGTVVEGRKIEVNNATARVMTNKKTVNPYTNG

B1: UUGAGAG (DNA:RNA)
RNA: GGGAGACCGGAAUUCAGAUUGUCCUUGAGAGUUAAAUCCCGUCGUAGCCACCA
DNA 1: CAATCTGAATTCCGGTCTCCC
DNA 2: TGGTGGCTACGACGGGATT
B2: UCCGCAC (DNA:RNA)
RNA: B1 RNA with U26C, G27C, A28G, G29C, G31C
DNA 1: CAATCTGAATTCCGGTCTCCC
DNA 2: TGGTGGCTACGACGGGATT
B3: CGAAUCC (DNA:RNA)
RNA: B1 RNA with U25C, U26G, G27A, G29U, A30C, G31C
DNA 1: CAATCTGAATTCCGGTCTCCC
DNA 2: TGGTGGCTACGACGGGATT
B4: CUAUUGC (DNA:RNA)
RNA: B1 RNA with U25C, G27A, A28U, G29U, A30G, G31C
DNA 1: CAATCTGAATTCCGGTCTCCC
DNA 2: TGGTGGCTACGACGGGATT
B5: AGAGGUC (DNA:RNA)
RNA: B1 RNA with U25A, U26G, G27A, A28G, A30U, G31C
DNA 1: CAATCTGAATTCCGGTCTCCC
DNA 2: TGGTGGCTACGACGGGATT
B6: AGGUGGC (DNA:RNA)
RNA: B1 RNA with U25A, U26G, A28U, A30G, G31C
DNA 1: CAATCTGAATTCCGGTCTCCC
DNA 2: TGGTGGCTACGACGGGATT
B7: GGAUAAA (DNA:RNA)
RNA: B1 RNA with U25G, U26G, G27A, A28U, G29A, G31A
DNA 1: CAATCTGAATTCCGGTCTCCC
DNA 2: TGGTGGCTACGACGGGATT
B8: GAGGCAC (DNA:RNA)
RNA: B1 RNA with U25G, U26A, A28G, G29C, G31C
DNA 1: CAATCTGAATTCCGGTCTCCC
DNA 2: TGGTGGCTACGACGGGATT
B9: AGAAUUG (DNA:RNA)
RNA: B1 RNA with U25A, U26G, G27A, G29U, A30U
DNA 1: CAATCTGAATTCCGGTCTCCC
DNA 2: TGGTGGCTACGACGGGATT
B10: UAUUCUC (DNA:RNA)
RNA: B1 RNA with U26A, G27U, A28U, G29C, A30U, G31C
DNA 1: CAATCTGAATTCCGGTCTCCC
DNA 2: TGGTGGCTACGACGGGATT
B11: CUCUCUC (DNA:RNA)
RNA: B1 RNA with U25C, G27C, A28U, G29C, A30U, G31C
DNA 1: CAATCTGAATTCCGGTCTCCC
DNA 2: TGGTGGCTACGACGGGATT
B12: ACACGAU (DNA:RNA)
RNA: B1 RNA with U25A, U26C, G27A, A28C, G31U
DNA 1: CAATCTGAATTCCGGTCTCCC
DNA 2: TGGTGGCTACGACGGGATT
B13: CGCAAAA (DNA:RNA)
RNA: B1 RNA with U25C, U26G, G27C, G29A, G31A
DNA 1: CAATCTGAATTCCGGTCTCCC
DNA 2: TGGTGGCTACGACGGGATT
B14: CGAGGCA (DNA:RNA)
RNA: B1 RNA with U25C, U26G, G27A, A28G, A30C, G31A
DNA 1: CAATCTGAATTCCGGTCTCCC
DNA 2: TGGTGGCTACGACGGGATT
B15: CACGUUA (DNA:RNA)
RNA: GGGAGACCGGAAUUCAGAUUGUCCCACGUUAUUAAAUCCCGUCGUAGCCACCA
DNA 1: CAATCTGAATTCCGGTCTCCC
DNA 2: TGGTGGCTACGACGGGATT
B16: CUCAAAU (DNA:RNA)
RNA: B1 RNA with U25C, G27C, G29A, G31U
DNA 1: CAATCTGAATTCCGGTCTCCC
DNA 2: TGGTGGCTACGACGGGATT
B17: UAAGGUG (DNA:RNA)
RNA: B15 RNA with C25U, C27A, U29G, A31G
DNA 1: CAATCTGAATTCCGGTCTCCC
DNA 2: TGGTGGCTACGACGGGATT
B18: ACAGUUG (DNA:RNA)
RNA: B15 RNA with C25A, A26C, C27A, A31G
DNA 1: CAATCTGAATTCCGGTCTCCC
DNA 2: TGGTGGCTACGACGGGATT
B19: AGGUAGC (DNA:RNA)
RNA: B1 RNA with U25A, U26G, A28U, G29A, A30G, G31C
DNA 1: CAATCTGAATTCCGGTCTCCC
DNA 2: TGGTGGCTACGACGGGATT
B20: CUCACGU (DNA:RNA)
RNA: B15 RNA with A26U, G28A, U29C, U30G, A31U
DNA 1: CAATCTGAATTCCGGTCTCCC
DNA 2: TGGTGGCTACGACGGGATT

These binders were tested against T1, RBFOX1 RRM (assay: EMSA; HiTS-Eq, 1 nM pool, 10 min; buffer printed only for the single-RNA assays: 10 mM Tris pH 7.5, 150 mM NaCl, 3.4 mM EDTA, 0.001% NP-40, 30 C). Details: tags: His6 N-terminal (pET28a); label: 5' 32P.
Method in brief: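 A pool of RNA with 7 randomized nucleotides, 5′-radiolabelled and with DNA-annealed flanks, was equilibrated at 1 nM for 10 min in 50 µL with purified RbFox RRM, wild type or mutant, across increasing protein concentrations. Free RNA was separated by 8% native PAGE, excised, reverse-transcribed, barcoded by PCR and sequenced. Relative association constants were obtained from read-count changes of each RNA species versus the control reaction and normalised to the cognate motif.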

| Binder | binding signal |
| --- | --- |
| B1 | 0.0165 KA relative to UGCAUGU |
| B2 | 0.0164 KA relative to UGCAUGU |
| B3 | 0.00689 KA relative to UGCAUGU |
| B4 | 0.0111 KA relative to UGCAUGU |
| B5 | 0.012 KA relative to UGCAUGU |
| B6 | 0.0219 KA relative to UGCAUGU |
| B7 | 0.00928 KA relative to UGCAUGU |
| B8 | 0.02 KA relative to UGCAUGU |
| B9 | 0.00805 KA relative to UGCAUGU |
| B10 | 0.0117 KA relative to UGCAUGU |
| B11 | 0.00875 KA relative to UGCAUGU |
| B12 | 0.00137 KA relative to UGCAUGU |
| B13 | 0.00557 KA relative to UGCAUGU |
| B14 | 0.0146 KA relative to UGCAUGU |
| B15 | 0.00221 KA relative to UGCAUGU |
| B16 | 0.00185 KA relative to UGCAUGU |
| B17 | 0.0193 KA relative to UGCAUGU |
| B18 | 0.00829 KA relative to UGCAUGU |
| B19 | 0.0132 KA relative to UGCAUGU |
| B20 | 0.00586 KA relative to UGCAUGU |
